Test system: cAMP
Experiment: Fluorescence response of cAMP sensors to isoproterenol in HEK 293 cells co-expressing the beta adrenergic receptor
Assay type: cell-based, human
Conditions: in response to isoproternol
Method in brief: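 Green cAMP-sensor fluorescence was measured at 25 °C in DPBS, by microscopy or plate reader (488/20 nm excitation, 530/20 nm emission), upon addition of isoproterenol, forskolin, IBMX or DMSO. Cells were HEK 293 or 293T transiently expressing sensor plus beta adrenergic receptor for 24-48 h.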

B1: Library 2-2 F9: cAMP sensor; SEQID 12 in Table 1, SEQ ID NO: 13 in Table 3 (protein)
chain: MVAAHAAHSSSSAEWIACLDKRPLERSSEDVDIIFTRLKEVKAFEKFHPNLLHQICLCGYYENLEKGITLFRQGDIGTNWYAVLAGSLDVKVSETSSHQDAVTICTLGIGTAFGESILDNTPRHATIVTRESSELLRIEQKDFKALWEKYRQYMAGLLAPPYGVMETGSNNDRIPDKENTPLIEPHVPLRPANTITKVPSEKILRAGKILRNAILSRAPHMIRDRKYHLKTYRQCCVGTELVDWMMQQTPCVHSRTQAVGMWQVLLEDGVLNHVDQEHHFQDKYLFYRFLDDEHEDAPLPTEEEKKECDEELQDTMLLLSQMGPDAHMRMILRKPPGQRTVDDLEIIYEELLHIKALSHLSTTVKRELAGVLIFESHAKGGTVLFNQGEEGTSWYIILKGSVNVVIYGKGVVCTLHEGDDFGKLALVNDAPRAASIVLREDNCHFLRVDKEDFNRILRDVLENVYIKADKQKNGIKANFKIRHNIEDGGVQLAYHYQQNTPIGDGPVLLPDNHYLSVQSILSKDPNEKRDHMVLLEFVTAAGITLGMDELYKGGTGGSMVSKGEELFTRGVVPIQVELDGDVNGHKFSVSGEGEGDATYGKLTLKFICTTGKLPVPWPTLVTTLTYGVQCFSRYPDHMKQHDFFKSAMPEGYIQERTIFFKDDGNYKTRAEVKFEGDTLVNRIELKGIDFKEDGNILGHKLEYNTRNTVRLKEHDQDVLVLEKVPAGNRASNQGNSQPQQKYTVMSGTPEKILEHFLETIRLEATLNEATDSVLNDFIMMHCVFMPNTQLCPALVAHYHAQPSQGTEQEKMDYALNNKRRVIRLVLQWAAMYGDLLQEDDVSMAFLEEFYVSVSDDARMIAALKEQLPELEKIVKQISEDAKAPQKKHKVLLQQFNTGDERAQKRQPIRGSDEVLFKVYCMDPTYTTIRVPVATSVKEVISAVADKLGSGEGLIIVKMSSGGEKVVLKPNDVSVFMTLTINGRLFACPREQFDSLTPLPEQEGPTVGTVGTFELMSSKDLAYQMTIYDWELFNCVHELELIYHTFGRHNFKKTTANLDLFLRRFNEIQFWVVTEICLCSQLSKRVQLLKKFIKIAAHCKEYKNLNSFFAIVMGLSNVAVSRLALTWEKLPSKFKKFYAEFESLMDPSRNHRAYRLTVAKLEPPLIPFMPLLIKDMTFTHEGNKTFIDNLVNFEKMRMIANTARTVRYYRSQPFNPDAAQANKNHQDVRSYVRQLNVIDNQRTLSQMSHRLEPRRP
**Q.** For B1, which “Relative Change in Fluorescence” value is on record?
**A.** −36%
